# Inconclusive means that the source gave no clear call. Such entries were picked first, then a sample of the others. Where the call is inconclusive, the potency comes from a doubtful curve fit. Active and inactive are the calls of the source. The call rests on the fitted dose curve; in most records, active means well fitted cell-killing curve with a large enough effect; inconclusive means small, poorly fitted or top-dose-only effect, or effect the other way; inactive means no such curve, though single readings can be large or run the other way.
# Columns and labels:
# [1] = Viability qHTS for spleen associated tyrosine kinase inhibitor (SYKi) naive MV4-11 cells (AID 1963823); settings: MV4-11 AML viability, CellTiter-Glo luminescence, 72 h; series mostly up to 45 µM; further: nearly all actives have a fitted effect of over 40% in size
# Outline: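 Compounds were dispensed acoustically onto plates, MV4-11 cells (SYKi-naive) added at 500 per well, and plates incubated 72 hr at 37 C. CellTiter-Glo was added and luminescence measured after 10 min.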
# [2] = Viability qHTS for spleen associated tyrosine kinase inhibitor (SYKi) drug resistant MV4-11 cells (AID 1963824); settings: SYKi-resistant MV4-11 viability, CellTiter-Glo, 72 h; series mostly up to 45 µM; further: nearly all actives have a fitted effect of over 35% in size
# Outline: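 SYK inhibitor-resistant MV4-11 AML cells, 500 per well, added to predispensed compounds and incubated 72 hr at 37 C, 5% CO2. Viability measured by CellTiter-Glo luminescence after 10 min at room temperature.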
# Potency means the concentration at half of the fitted maximal effect; tags describe the fitted curve by direction and shape.
SMILES,Potency [1],Potency [2]
OCCc1ccc(O[C@@H]2O[C@H](CO)[C@@H](O)[C@H](O)[C@H]2O)cc1,"inconclusive: 1.84 µM [cytotoxic, partial curve, poor fit]","inconclusive: 5.8 µM [cytotoxic, full curve, poor fit]"
C/C=C(\C)C(=O)OC1C(C)C2(O)C(C=C(CO)CC3(O)C(=O)C(C)=CC32)C2C(C)(C)C12OC(C)=O (stereo unspecified),"inconclusive: 0.317 µM [cytotoxic, full curve]",active: 0.112 µM
C[C@H](O)C(O)(C(=O)OCc1ccccc1NC(=O)CCC(N)C(=O)O)[C@H](C)O (stereo partly specified),"inconclusive: 1.59 µM [cytotoxic, partial curve, poor fit]","inconclusive: 3.17 µM [cytotoxic, partial curve, poor fit]"
C[C@@H]1C[C@H]2OC(=O)[C@@]3(C)CCC[C@](C)(C23)[C@@]1(O)CCC1=CC(=O)OC1O (stereo partly specified),inactive,"inconclusive: 4.53 µM [cytotoxic, partial curve, poor fit]"
COC(=O)C1=C[C@@H](O)[C@@H](O)[C@H](O[C@@H]2O[C@H](COC(=O)/C=C/c3ccccc3)[C@@H](O)[C@H](O)[C@H]2O)C1,inactive,inactive
C=CCCCCCCCCC(=O)O,inactive,inactive
CC1(C)CC[C@]23CO[C@@]4(CCC5[C@@]6(C)CC[C@H](O[C@@H]7OC[C@H](O[C@@H]8O[C@H](CO)[C@@H](O)[C@H](O)[C@H]8O[C@@H]8OC[C@@H](O)[C@H](O)[C@H]8O)[C@H](O)[C@H]7O)[C@@](C)(CO)C6CC[C@@]5(C)[C@]4(C)CC2=O)[C@@H]3C1 (stereo partly specified),active: 3.1 µM,active: 4.91 µM
O=C(O)CC1(O)C(=O)Nc2ccccc21 (stereo unspecified),active: 9.43 µM,inactive

# Reference: PubChem BioAssay (NCATS)
